According to PubChem BioAssay AID360 (National Center for Advancing Translational Sciences (NCATS), 2006):
In all, about 48,000 compounds went through this assay and about 550 (1.1%) were called active. Another 4% or so got no clear call; they are omitted. No stated cut-off is given here; in the data, active means potency below about 15 µM; inconclusive means mostly about 16 µM to 33 µM; inactive means weaker than that. The list shows a part of the results.

These compounds were tested against Lysosomal acid glucosylceramidase (Homo sapiens) (UniProt P04062) (assay: Glucocerebrosidase). Settings: purified enzyme, resorufin glucoside fluorescence (screen aimed at inhibitors), 20 min; series mostly up to 77 µM.
Outline: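 Wild-type enzyme at 0.2 nM final in 50mM citric acid/KH2PO4, 10mM sodium taurocholate, 0.01% tween-20, pH 5.9, with resorufin beta-D-glucopyranoside at 30 uM final. Compounds titrated, 20 min at RT, red fluorescence read; AC50 from titration.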
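Further: the screen sought inhibitors.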
Potency means the concentration at half of the fitted maximal effect.

Sequence of UniProt P04062 (P04062 whole entry, looked up): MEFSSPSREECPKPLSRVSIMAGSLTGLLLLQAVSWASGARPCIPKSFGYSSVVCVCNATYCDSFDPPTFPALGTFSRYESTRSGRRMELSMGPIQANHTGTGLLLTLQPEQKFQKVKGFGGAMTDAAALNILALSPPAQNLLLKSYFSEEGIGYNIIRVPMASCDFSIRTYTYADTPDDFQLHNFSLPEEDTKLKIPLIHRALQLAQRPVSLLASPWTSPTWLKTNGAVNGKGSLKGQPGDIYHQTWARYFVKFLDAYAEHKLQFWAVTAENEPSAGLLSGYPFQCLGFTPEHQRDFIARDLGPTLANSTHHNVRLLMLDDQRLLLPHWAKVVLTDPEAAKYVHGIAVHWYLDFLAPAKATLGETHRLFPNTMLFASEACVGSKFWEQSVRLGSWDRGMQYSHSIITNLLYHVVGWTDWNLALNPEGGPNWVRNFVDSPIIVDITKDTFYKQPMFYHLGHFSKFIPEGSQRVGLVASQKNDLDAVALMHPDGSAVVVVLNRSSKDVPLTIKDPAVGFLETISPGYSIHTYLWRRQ

Potency, inactive:
Cn1c(C(=O)NCCC2=CCCCC2)cc2c(=O)n3ccccc3nc21 > 76.9 µM
Clc1ccc(OCCn2ccnc2)c(Cl)c1 > 76.9 µM
COc1ccc(CNC(=O)c2cc3c(=O)n4ccccc4nc3n(Cc3ccco3)c2=N)cc1 > 76.9 µM
COC(=O)C1=C(C)NC(C)=C(C(=O)OC)C1c1ccccn1 > 76.9 µM
Cc1ccc2c(c1)N(Cc1ccncc1)C(=O)C(C)O2 (stereo not drawn) > 76.9 µM
COCCn1c(N)c(NCc2ccccc2)c(=O)n(CC(=O)Nc2cc(C)ccc2C)c1=O > 76.9 µM
CN1C(=S)SC(N(O)C(=O)NC2CCCCC2)C1(C)C (stereo not drawn) > 76.9 µM
CCOc1cc(N2CCOCC2)c(OCC)cc1NC(=O)COC(=O)CCc1c[nH]c2ccccc12 > 76.9 µM
CCN(Cc1ccccc1)C(=O)c1ccccc1C > 76.9 µM
O=C(Nc1ccc(F)cc1F)c1ccco1 > 76.9 µM
CC(C)(C)NC(=O)C1CC(=O)OC12CCCCC2 (stereo not drawn) > 76.9 µM
COCCNC(=O)CSc1nc2cc(OC)c(OC)cc2c(=O)n1CCC1=CCCCC1 > 76.9 µM
O=C(c1ccc2c(=O)n(Cc3ccco3)c(=S)[nH]c2c1)N1CCN(c2ccccc2)CC1 > 76.9 µM
CS(=O)(=O)N1CCc2cc(S(=O)(=O)Nc3ccc4oc5c(c4c3)CCCC5)ccc21 > 76.9 µM
CCc1nc2cc(Cl)c(Cl)cc2[nH]1 > 76.9 µM
O=C(CSc1nc2c(c(=O)n1-c1ccc(F)cc1)SCC2)NCc1ccco1 > 76.9 µM
CC(C)c1ccc(-c2nc(N3CCCCC3)[nH]c(=O)c2C#N)cc1 > 76.9 µM
O=C(Nc1ccc(Cl)cc1)c1ccc2c(c1)OCO2 > 76.9 µM
CCOC(=O)c1ccc(NC(=O)Cn2nnc(-c3ccccc3)n2)cc1 > 76.9 µM
COc1ccccc1NC(=O)Cc1noc(CN(C)Cc2cccs2)n1 > 76.9 µM
[N-]=[N+]=CC(=O)CNC(=O)[C@@H](Cc1ccccc1)N1C(=O)c2ccccc2C1=O > 76.9 µM
CCOC(=O)N1CCC(NC(=O)CCc2c(C)nc3nc(C)nn3c2C)CC1 > 76.9 µM
Cc1ccc(C(=O)CCNc2ccccc2)o1 > 76.9 µM
O=C(O)COc1ccc(-c2nnn(CC(=O)O)n2)cc1 > 76.9 µM
COc1ccc(N(CC(=O)NC(C)(C)C)C(=O)c2ccco2)cc1 > 76.9 µM
CC(C)C(NC(=O)C12CC3CC(CC(C3)C1)C2)C(=O)O (stereo not drawn) > 76.9 µM
O=S(=O)(NCCOCC(F)(F)C(F)F)c1ccc2oc3ccccc3c2c1 > 76.9 µM
NC(=O)c1oc2ccc(Cl)cc2c1NC(=O)CN1CCOCC1 > 76.9 µM
CCS(=O)(=O)N1CCCC(C(=O)NC2CCCC2)C1 (stereo not drawn) > 76.9 µM
CC(=O)Nc1ccc(S(=O)(=O)Nc2ccc(N3CCOCC3)c(F)c2)cc1 > 76.9 µM
COc1cc(C2/C(=C(\O)c3cc(C)ccc3C)C(=O)C(=O)N2CCN(C)C)ccc1O (stereo not drawn) > 76.9 µM
COc1ccc(CC(=O)N2CCCc3ccccc32)cc1OC > 76.9 µM
COc1ccc(-c2nnc3ccc(SC)nn23)cc1 > 76.9 µM
O=S(=O)(Nc1cccnc1)c1ccc(C2CCCCC2)cc1 > 76.9 µM
CCOC(=O)CN(C(=O)CSc1nnc(CNc2ccc(C)cc2C)n1CC)c1ccccc1 > 76.9 µM
Cc1ccc(S(=O)(=O)c2cc3c(=O)n4ccccc4nc3n(CC3CCCO3)c2=N)cc1C (stereo not drawn) > 76.9 µM
COc1cc2c(cc1OC)CN(C(=O)c1cc3ccccc3oc1=O)CC2 > 76.9 µM
CC(C)C(OC(=O)C1CCCO1)C(=O)NC1CCCC1 (stereo not drawn) > 76.9 µM
O=C(c1ccccc1)c1nc2ccccc2[nH]c1=O > 76.9 µM
O=C(NCc1cccs1)c1cnn2cccnc12 > 76.9 µM
O=C1CC(Nc2ccccc2)C(=O)N1c1ccc(N2CCOCC2)cc1 (stereo not drawn) > 76.9 µM
COc1ccc(C)cc1NC(=O)c1nc2nc(C)cc(C)n2n1 > 76.9 µM
CCOc1cc(-c2c(C#N)c(=O)[nH]c3c2c(C)nn3-c2ccc(F)cc2)ccc1O
CCSc1nnc([C@@H]2CCCN2C(=O)OC(C)(C)C)o1 > 76.9 µM
COc1ccc(C)cc1NC(=O)CSc1nnc(-c2ccc(OC)c(OC)c2)n1N > 76.9 µM
CCOC(=O)c1cccc(NC(=O)CN(c2ccc(OC)cc2)S(=O)(=O)c2c(C)noc2C)c1 > 76.9 µM
CCOC(=O)Cc1nnc2c(Nc3ccccc3F)nc3nonc3n12 > 76.9 µM
CC1(C)C(=O)C2(CCCC2)C(=O)OC1c1ccco1 (stereo not drawn) > 76.9 µM
CSc1nc(N2CCOCC2)c2c3c(sc2n1)CCCC3 > 76.9 µM
CCN1CCCC1CNC(=O)CCNC(=O)c1cc(OC)c(OC)c(OC)c1 (stereo not drawn) > 76.9 µM
Cc1ccc(C(C)C)c(OCCNS(C)(=O)=O)c1 > 76.9 µM
COc1ccc(C(NC(=O)c2ccco2)c2ccc(OC)c(OC)c2)cc1OC > 76.9 µM
O=C(CCNS(=O)(=O)c1cccs1)Nc1ccccc1F > 76.9 µM
CCC(C)[C@H](NC(=O)NCc1ccccc1Cl)C(=O)O (stereo partly drawn) > 76.9 µM
Nc1cc(=O)[nH]n1C1CCN(c2ccccc2)CC1 > 76.9 µM
COc1ccc2nc(NC(=O)CSc3nc4ccccc4o3)sc2c1 > 76.9 µM
Cc1cc(C)nc(N2CCN(c3nc(C)cc(C)n3)CC2)n1 > 76.9 µM
O=C(O)CCc1nn2c3ccccc3nc2n(-c2ccccc2)c1=O > 76.9 µM
